Assay in all cases: mRNA display binding score; higher = more enriched on the antigen
In assay [1] the target is Influenza A H1N1 A/Michigan/45/2015 hemagglutinin ectodomain. The protocol: (§1)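 A pool of natively paired antibodies, displayed as scFv on mRNA, was selected once on antigen-coated beads and sequenced before and after; two replicates.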
The target of assay [2] is Influenza A H1N1 A/Solomon Islands/3/2006 hemagglutinin ectodomain. How it is done:
as §1

In assay [3] the target is Influenza A H3N2 A/Singapore/INFIMH-16-0019/2016 hemagglutinin ectodomain. The conditions noted are these: antigen blocked with: nothing. The protocol: as §1
Assay [4] has as its target Influenza A H5N1 A/Qinghai/1A/2005 hemagglutinin ectodomain. The protocol:
as §1

Assay [5] concerns the target Influenza A H7N9 A/Shanghai/2/2013 hemagglutinin ectodomain. How it is done:
as §1

The target in assay [6] is Influenza B/Lee/1940 hemagglutinin ectodomain. The protocol: as §1
The target in assay [7] is Influenza B/Phuket/3073/2013 hemagglutinin ectodomain. The protocol:
as §1

Setting [8] is: antigen blocked with: 2 µM CR9114 IgG.

The list shows a part of the results. Binding of human antibodies (heavy:light variable regions, tested as scFv in one mRNA-display pool) to influenza hemagglutinin, with or without the stem antibody CR9114 bound first. Score = (mean enrichment − median) / interquartile range of that screen; higher = more enriched, 0 = typical non-binder. Active = above the paper's cut-off per screen: stems 28; unblocked H1 Solomon Islands 5, H1 Michigan 3, H3 5, H5 19, H7 2.85, both B 5; blocked 9, 7, H5 10, H7 10, B Phuket 10, B Lee 11.5. Scores are scaled within each screen and are no affinities; replicates correlate at about 0.6 to 0.9, and antibodies rare in the pool are noisier.

B1: 013-10-3F02 (protein)
chain 1: QVQLVESGGGVAQPGRSLRLSCAASGFTFSTYGMHWVRQAPGKGLEWVAVISYDGSKRYYAEILKDRFTISRDNSKNTVYLQMNSLRTEDTAVYFCAKEGRPLIVSGTHFFQFYYGMDVWGQGTTVTVSS
chain 2: DIQMTQSPSSLSASVGDRVTISCRASQSIGTYLNWYQQKPGKAPNLLIYGTSTLKSGVPSRFSGSGSGTDFTLTIGSLQPEDFATYFCQQSFSPPLTFGRGTRLEIK
In the case of B1, the “mRNA display binding score” value in assay [1] (setting [8]) was active: 42.3; in assay [1] (antigen blocked with: nothing), inactive: 0.742; in assay [2] (setting [8]) it was inactive: -0.319; in assay [2] (antigen blocked with: nothing), inactive: -0.133; in assay [3], inactive: -0.377; in assay [4] (setting [8]), inactive: 7.71. Besides, the “mRNA display binding score” value in assay [4] (antigen blocked with: nothing) was inactive: 3.61; in assay [5] (setting [8]) it was inactive: 0.469; in assay [5] (antigen blocked with: nothing) it was inactive: -0.796; in assay [6] (setting [8]), inactive: 1.85; in assay [6] (antigen blocked with: nothing), inactive: 0.0969; in assay [7] (setting [8]), inactive: -0.158. In assay [7] (antigen blocked with: nothing), the “mRNA display binding score” value is inactive: 0.265.

B2: K77-2B11 (protein)
chain 1: LVQFQESGPGLVKPSETLSLTCTVSGGSISSSTYYWGWIRQPPGKGLEWIGSIYYDGSTYYNPSLKSRVTISVDTSKSRFSLTLSSVTAADTAIFYCARVAQWLRPGYFDYWGQGTLVTVSS
chain 2: DIVMTQSPDSLAVSLGERATINCKSSQSILYSSINKNYLAWYQQKPGQPPKLLIYWASTRESGVPDRFSGSGSGTDFTLTISSLQAEDVAVYYCQQYYGTPPTFGQGTKLEIK
In the case of B2, the “mRNA display binding score” value in assay [1] (setting [8]) was inactive: 0.375; in assay [1] (antigen blocked with: nothing), inactive: 0.365; in assay [2] (setting [8]), inactive: 0.381; in assay [2] (antigen blocked with: nothing) it was inactive: 0.14; in assay [3] it was inactive: 0.742; in assay [4] (setting [8]) it was inactive: 0.142. The “mRNA display binding score” value is inactive: -0.164 in assay [4] (antigen blocked with: nothing); inactive: 1.54 in assay [5] (setting [8]); inactive: 0.725 in assay [5] (antigen blocked with: nothing); inactive: 0.612 in assay [6] (setting [8]); inactive: 0.18 in assay [6] (antigen blocked with: nothing); inactive: 0.707 in assay [7] (setting [8]). Further, the “mRNA display binding score” value in assay [7] (antigen blocked with: nothing) is inactive: 0.307.

B3: C1-E04 (protein)
chain 1: VQLQESGPGLVKPSETLSLTCTVSGDSIISSGSYWAWIRQPPGKGLEWIGFVYYSGSTYYSTSLKSRVTISVDTSKNQFSLKLTSVTAADTAVYFCARDRGGEEYYYGMDVWGPGTTVTVSS
chain 2: DIQMTQSPSSLSASVGDRVSITCRASQFIINNLNWYQKKPGKAPWLLIYSASTLQSGVPSRFSGSRSGTDFTLTISSLEPEDFATYYCQQGYSTPHTFGQGTKVEIK
With B3, the “mRNA display binding score” value in assay [1] (setting [8]) is inactive: -0.539; in assay [1] (antigen blocked with: nothing), inactive: -0.493; in assay [2] (setting [8]), inactive: 0.0675; in assay [2] (antigen blocked with: nothing), inactive: -0.497; in assay [3], inactive: -0.5; in assay [4] (setting [8]), inactive: -0.703. Further, the “mRNA display binding score” value in assay [4] (antigen blocked with: nothing) was inactive: -0.246; in assay [5] (setting [8]), inactive: -0.386; in assay [5] (antigen blocked with: nothing), inactive: -0.789; in assay [6] (setting [8]) it was inactive: -0.493; in assay [6] (antigen blocked with: nothing) it was inactive: -0.263; in assay [7] (setting [8]), inactive: -0.45. Moreover, the “mRNA display binding score” value in assay [7] (antigen blocked with: nothing) was inactive: -0.325.

B4: W85-3F01 (protein)
chain 1: EVQLVESGGDLVQPGRSLRLSCEASGFTFSSYEMSWVRQPPGKGLEWVSYISSSGATFYYADAVKGRFTISRDNAKNSLYLQMNSLRAEDTAVYYCASLITGYNSYWYWVDHLDSWGHGTLVTVSS
chain 2: DIVMTQSPLSLPVTPGEPASISCRSSQSLLHSNGYNYLDWYLQKPGQSPQLLIYLGSIRASGVPDRFNGSGSGTDFTLKIIRVEAEDVGVYYCMQALQTAFTFGPGTKVDIK
As for B4, the “mRNA display binding score” value in assay [1] (setting [8]) is inactive: 1.25; in assay [1] (antigen blocked with: nothing), inactive: 1.79; in assay [2] (setting [8]), inactive: 0.609; in assay [2] (antigen blocked with: nothing), inactive: 2.69; in assay [3], inactive: 0.56; in assay [4] (setting [8]), inactive: 4.51. The “mRNA display binding score” value in assay [4] (antigen blocked with: nothing) was inactive: 1.03; in assay [5] (setting [8]) it was inactive: 4.45; in assay [5] (antigen blocked with: nothing), inactive: 2.07; in assay [6] (setting [8]), inactive: 0.731; in assay [6] (antigen blocked with: nothing) it was inactive: 2.7; in assay [7] (setting [8]) it was inactive: 2.31. Also, the “mRNA display binding score” value in assay [7] (antigen blocked with: nothing) is inactive: 2.24.

B5: R95-1H04 (protein)
chain 1: QVQLQESGPGLVKPSETLSLTCSLSSGYIGTYSWNWIRQAPGKGLEWIGYVSNSGSTKYNPSLQSRVTISVDMSKNQFSLELRSVSAADTALYYCARAHYFGSGNFIYGYFYYGMDVWGQGTMVTVSS
chain 2: SYELTQPPSVSVSPGQTASITCSGDKLGDKYACWYQQKPGQSPLLVIYQDTKRPSGVPERFSGSNSGNTATLTINGTQAMDEADYYCQAWDITTHVAFGGGTKLSVL
Regarding B5, the “mRNA display binding score” value in assay [1] (setting [8]) was inactive: 0.1; in assay [1] (antigen blocked with: nothing) it was inactive: 0.443; in assay [2] (setting [8]), inactive: 0.825; in assay [2] (antigen blocked with: nothing), inactive: 0.594; in assay [3], inactive: 0.698; in assay [4] (setting [8]), inactive: 0.115. The “mRNA display binding score” value in assay [4] (antigen blocked with: nothing) is inactive: 0.292; in assay [5] (setting [8]), inactive: -0.0154; in assay [5] (antigen blocked with: nothing), inactive: 0.249; in assay [6] (setting [8]) it was inactive: 0.0318; in assay [6] (antigen blocked with: nothing), inactive: -0.325; in assay [7] (setting [8]) it was inactive: -0.0339. The “mRNA display binding score” value in assay [7] (antigen blocked with: nothing) was inactive: 0.

B6: 36.d.02 (protein)
chain 1: QVQLQESGPGLVKPSQTLSLTCIVSGGSISSGDYFWSWIRQPPGKGLEWIAYMYYTGSTYYNPSLKSRVAISVDTSKNHLALKLTSVTAADTAVYYCGRIPRDIVLVPGGSRWAATIDDWGQGILVTVSS
chain 2: EIVMTQSPVSLSLSPGERATLSCRASQSVSSYLAWYQQKPGQAPRLLIYGASNRATDIPARFRGSGSGTDFTLTISSLDPEDFAVYYCQQYTNWPRTFGQGTKVETK
With B6, the “mRNA display binding score” value in assay [1] (setting [8]) was inactive: -0.269; in assay [1] (antigen blocked with: nothing) it was inactive: 0.434; in assay [2] (setting [8]), inactive: -0.503; in assay [2] (antigen blocked with: nothing), inactive: 0.144; in assay [3], inactive: -0.16; in assay [4] (setting [8]) it was inactive: -0.00422. In addition, the “mRNA display binding score” value is inactive: 0.333 in assay [4] (antigen blocked with: nothing); inactive: -0.0319 in assay [5] (setting [8]); inactive: 0.825 in assay [5] (antigen blocked with: nothing); inactive: -0.233 in assay [6] (setting [8]); inactive: -0.352 in assay [6] (antigen blocked with: nothing); inactive: 0.0518 in assay [7] (setting [8]). Moreover, the “mRNA display binding score” value in assay [7] (antigen blocked with: nothing) was inactive: -0.0675.

(Values after the supplement of paper PMC11383711.)
